Measurements reported in PubChem BioAssay AID1461 (National Center for Advancing Translational Sciences (NCATS), 2008).
About 2,300 (1%) of roughly 220,000 compounds were called active. The shares of active, inactive and inconclusive entries below differ from those in the screen. The call rests on the fitted dose curve; in most records, active means well fitted inhibition curve with a large enough effect; inconclusive means small, poorly fitted or top-dose-only effect, or effect the other way; inactive means no such curve, though single readings can be large or run the other way. Where the call is inconclusive, the potency comes from a doubtful curve fit.
Further: nearly all actives have a fitted effect of over 50% in size.
On the % scale 0 is the no-effect control and ±100 the full control effect; potency means the concentration at half of the fitted maximal effect; tags describe the fitted curve by direction and shape.

What follows are molecules tested against Neuropeptide S receptor (Homo sapiens) (UniProt Q6W5P4) (assay: qHTS Assay for Antagonists of the Neuropeptide S Receptor: cAMP Signal Transduction). Settings: CHO-NPSR cells, cAMP TR-FRET, antagonist mode; activity change, negative = inhibition: at 38.3 µM (top of the series) unless noted.
UniProt Q6W5P4, sequence (Q6W5P4 whole entry, looked up): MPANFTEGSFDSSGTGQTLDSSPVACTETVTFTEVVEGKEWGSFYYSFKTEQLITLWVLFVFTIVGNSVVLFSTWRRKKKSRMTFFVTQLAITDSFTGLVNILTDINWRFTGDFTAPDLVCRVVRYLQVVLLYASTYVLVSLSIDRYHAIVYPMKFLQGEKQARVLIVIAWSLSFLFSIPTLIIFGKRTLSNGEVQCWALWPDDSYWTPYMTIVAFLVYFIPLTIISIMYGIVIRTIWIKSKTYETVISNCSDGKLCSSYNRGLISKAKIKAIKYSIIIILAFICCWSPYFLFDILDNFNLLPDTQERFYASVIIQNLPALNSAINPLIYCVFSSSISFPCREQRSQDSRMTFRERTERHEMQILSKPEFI
In the case of `COCc1cc(C)nc(SCC(=O)Nc2cccc(C)c2C)c1C#N`, the activity change, negative = inhibition is reported as inconclusive: 54% [activator] [at 46.1 µM].
In the case of `Cc1ccc(C(=O)N2c3ccccc3N(Cc3ccccc3)C(=O)C2(C)C)cc1`, the Potency is reported as inconclusive: 12.6 µM [inhibitor, single point].
`COc1cccc(-c2nnc3sc(-c4ccc(C)cc4)nn23)c1` was tested, and the Potency was inconclusive: 25.1 µM [inhibitor, single point].
`CCCc1ccc(OCc2ccc(C(=O)N/N=C/c3cccc([N+](=O)[O-])c3)o2)c(OC)c1` was tested, and the Potency was active: 10 µM.
In the case of `O=C1CCCC2=C1C1(CCCC1)N=C(Nc1nc3ccccc3s1)N2`, the Potency is reported as inconclusive: 5.01 µM [inhibitor, full curve, poor fit].
`CCOc1ccc(S(=O)(=O)N(CC(=O)N2CCc3ccccc32)Cc2ccco2)cc1` was tested, and the Potency was inconclusive: 10 µM [inhibitor, partial curve].
`CCN(CC)c1ccc(/C=N/N2CCN(Cc3ccccc3Cl)CC2)c(O)c1` was tested, and the “activity change, negative = inhibition” value was inactive: 30.7%.
With `CCC(=O)OCCNc1cc(Sc2nccn2C)c2nonc2c1[N+](=O)[O-]` the Potency was inconclusive: 10 µM [inhibitor, single point].
With `O=C(Cn1cnc2ccccc2c1=O)N1CCOCC1` the Potency was inconclusive: 25.1 µM [inhibitor, single point].
With `Cc1cc2ncn(/N=C/c3ccc4c(c3)OCO4)c2cc1C` the Potency was inconclusive: 20 µM [inhibitor, single point].
With `COc1cccc(OC(C)c2ccnc3nc(/N=C/N(C)C)nn23)c1` (stereo not given) the “activity change, negative = inhibition” value was inactive: -3.46% [at 46.1 µM].
In the case of `CC(NC(c1ccccc1)c1ccccc1)C(=O)N1CCCc2ccccc21` (stereo not given), the Potency is reported as inconclusive: 10 µM [inhibitor, single point].
For `Cc1nn(C)c(C)c1NS(=O)(=O)c1ccccc1`, the “activity change, negative = inhibition” value was inactive: -0.665% [at 46.1 µM].
For `COCCCn1c(SCc2ccccc2)nc2cc(OC)c(OC)cc2c1=N`, the Potency was inconclusive: 12.6 µM [inhibitor, partial curve].
In the case of `Cc1ccc(NC(=O)C2CCCN(S(=O)(=O)c3c(C)noc3C)C2)c(C)c1` (stereo not given), the Potency is reported as inconclusive: 10 µM [inhibitor, single point].
In the case of `O=C(O)C[C@@H]1C(=O)O[C@@H]2C(COC(=O)c3cc(O)c(O)c(O)c3)O[C@@H](OC(=O)c3cc(O)c(O)c(O)c3)[C@@H](OC(=O)c3cc(O)c(O)c4c3[C@H]1[C@H](O)C(=O)O4)[C@H]2OC(=O)c1cc(O)c(O)c(O)c1` (stereo not given in full), the “activity change, negative = inhibition” value is reported as inactive: -20.2%.
With `CCOC(=O)C(C(=O)OCC)C(C(=O)OCC)N1CCOCC1` (stereo not given) the Potency was inconclusive: 25.1 µM [inhibitor, single point].
`COc1ccccc1-c1cc(C(F)(F)F)n2ncc(S(=O)(=O)c3ccccc3)c2n1` was tested, and the Potency was inconclusive: 12.6 µM [inhibitor, partial curve].
In the case of `COC(=O)c1sc(C(F)(F)F)c(-c2ccccc2)c1S(=O)(=O)NC(C)(C)C`, the Potency is reported as inconclusive: 10 µM [activator, single point].
For `CCCOc1cccc(-c2cc(-c3n[nH]c(=S)n3CC)c3ccccc3n2)c1`, the Potency was inconclusive: 12.6 µM [inhibitor, partial curve].
`O=C(Nc1ccc(N2CCOCC2)c(S(=O)(=O)Nc2ccc(Cl)cc2)c1)c1cnccn1` was tested, and the “activity change, negative = inhibition” value was inactive: 52.8%.
For `COC(=O)c1ccc(Oc2nc(N3CCCCC3)nc(N3CCOCC3)n2)cc1`, the Potency was inconclusive: 12.6 µM [inhibitor, single point].
In the case of `Cc1cc(C)cc(N2C(=O)C3CC=CCC3C2=O)c1` (stereo not given), the Potency is reported as inconclusive: 3.98 µM [activator, single point].
`CCC(Oc1ccccc1)C(=O)Nc1ncc([N+](=O)[O-])s1` (stereo not given) was tested, and the “activity change, negative = inhibition” value was inactive: 23.5%.
For `Cc1cc(/C=N/NC(=O)C(=O)NCc2ccccn2)c(C)n1-c1ccccc1`, the “activity change, negative = inhibition” value was inactive: 11.2%.
With `C=CCn1c(COc2ccccc2-c2ccccc2)nnc1SCC(=O)NC(=O)NCc1ccco1` the Potency was inconclusive: 15.8 µM [inhibitor, single point].
In the case of `CCCCOC(=O)CSc1nc(N)c(C#N)c(-c2ccc(OC)cc2)c1C#N`, the Potency is reported as inconclusive: 12.6 µM [inhibitor, single point].
In the case of `O=[N+]([O-])c1ccc(C2CCCC/C2=N\OCc2cccc(F)c2)c([N+](=O)[O-])c1` (stereo not given), the Potency is reported as inconclusive: 10 µM [inhibitor, single point].
For `CCCN(CC1CC1)c1nc(C)nc(Nc2c(Cl)cc(Cl)cc2Cl)c1Cl`, the Potency was inconclusive: 12.6 µM [inhibitor, single point].
For `CCOC(=O)c1nc(N2CCN(C(=O)OCC)CC2)c2c3c(sc2n1)CCCC3`, the Potency was inconclusive: 5.01 µM [inhibitor, full curve, poor fit].
`COCc1c(C(=O)OCC(=O)NCCN2C(=O)CSC2=O)oc2ccccc12` was tested, and the “activity change, negative = inhibition” value was inactive: 8.02%.
For `Cc1sc(-c2ccncc2)nc1OC(=O)c1cc(Cl)cc(Cl)c1`, the “activity change, negative = inhibition” value was inactive: -23.1% [at 46.1 µM].
`O=C(NCc1ccco1)c1ccc2c(=O)n(CC3CCCO3)c(=S)[nH]c2c1` (stereo not given) was tested, and the “activity change, negative = inhibition” value was inactive: -18.4% [at 46.1 µM].
For `COc1ccccc1NC(=O)NCC(=O)Nc1ccc(F)c(F)c1`, the “activity change, negative = inhibition” value was inactive: -3.16% [at 46.1 µM].
For `N#Cc1cc2c(nc1SCC(=O)Nc1sc3c(c1C#N)CCC3)CCCC2`, the Potency was inconclusive: 15.8 µM [inhibitor, single point].
For `CCOC(=O)c1cccc(NC(=O)CN(c2ccc(OC)cc2)S(=O)(=O)c2c(C)noc2C)c1`, the Potency was inconclusive: 12.6 µM [inhibitor, single point].
For `CCc1ccccc1NC(=O)c1cccc(Oc2ccc([N+](=O)[O-])cc2Cl)c1`, the Potency was inconclusive: 20 µM [inhibitor, single point].
For `Cc1cccc(NC(=O)c2ccc([N+](=O)[O-])s2)c1C`, the “activity change, negative = inhibition” value was inactive: -20.4%.
For `CC(C)C(OC(=O)C1CCCO1)C(=O)NC1CCCC1` (stereo not given), the Potency was inconclusive: 5.01 µM [inhibitor, single point].
In the case of `O=C1S/C(=C\c2ccc(O)c([N+](=O)[O-])c2)C(=O)N1c1ccccc1Cl`, the “activity change, negative = inhibition” value is reported as inactive: -33.7%.
For `COC(=O)c1sc2cc(=O)n(-c3cccc(C(F)(F)F)c3)nc2c1O`, the Potency was active: 10 µM.
With `O=C(Nc1ccc(Cl)cc1)c1ccc2c(c1)OCO2` the Potency was inconclusive: 10 µM [inhibitor, single point].
With `Cc1ccc(O)c(C(=O)c2cc(C#N)c3nc4ccccc4n3c2)c1` the “activity change, negative = inhibition” value was inactive: -11.8%.
For `CC(=O)Nc1ccc(S(=O)(=O)Oc2ccc(/C=N/NC(=O)c3ccc(Cl)cc3)cc2)cc1`, the Potency was inconclusive: 2.51 µM [inhibitor, full curve].
With `Cc1c(CCOC(=O)CC23CC4CC(CC(C)(C4)C2)C3)sc[n+]1Cc1ccc([N+](=O)[O-])cc1` the Potency was inconclusive: 10 µM [inhibitor, single point].
With `O=C(Nc1ccc(Cl)c([N+](=O)[O-])c1)C(Sc1ccccc1)c1ccccc1` (stereo not given) the Potency was inconclusive: 12.6 µM [inhibitor, single point].
In the case of `Cc1cc2cc(CN(Cc3cccs3)S(=O)(=O)c3ccc4c(c3)OCCO4)c(=O)[nH]c2cc1C`, the “activity change, negative = inhibition” value is reported as inactive: -21%.
`O=C(COc1cccc2cccnc12)N/N=C/c1ccccc1O` was tested, and the Potency was inconclusive: 15.8 µM [activator, single point].
`O=C(c1cc([N+](=O)[O-])cc([N+](=O)[O-])c1)N1CCOCC1` was tested, and the “activity change, negative = inhibition” value was inactive: 17.2% [at 46.1 µM].
`O=C(Nc1nccs1)c1cc2c(s1)CCCCC2` was tested, and the Potency was inconclusive: 10 µM [inhibitor, single point].
In the case of `O=C(Nc1ccc2c(c1)oc1ccc(S(=O)(=O)N3CCCC3)cc12)C1CC1`, the Potency is reported as inconclusive: 10 µM [inhibitor, single point].
With `CCOC(=O)c1c(CN(CC)CC)oc2ccc(OC)cc12` the “activity change, negative = inhibition” value was inactive: 7.16% [at 46.1 µM].
With `Cc1ccc2[nH]c3c(N4CCc5ccccc5C4)ncnc3c2c1` the Potency was inconclusive: 10 µM [inhibitor, partial curve].
`Nc1c2c(nc3ccc(Br)cc13)N(C1CCCCC1)CC2` was tested, and the Potency was inconclusive: 10 µM [inhibitor, single point].
With `COc1ccc(C(=O)N2CCCC(c3ccccc3)C2)cc1` (stereo not given) the “activity change, negative = inhibition” value was inactive: 6.81% [at 46.1 µM].
`CC(C)(C)c1ccc(Oc2ccc(NC(=O)c3cccs3)cn2)cc1` was tested, and the Potency was inconclusive: 20 µM [activator, single point].
`O=C(CSc1nnnn1-c1ccccc1)N1CCCc2ccccc21` was tested, and the “activity change, negative = inhibition” value was inactive: -14.1% [at 46.1 µM].
For `O=C(c1cc(C2CC2)on1)N1CCN(c2ccc(F)cc2)CC1`, the Potency was inconclusive: 12.6 µM [inhibitor, single point].
In the case of `NS(=O)(=O)c1ccc(NS(=O)(=O)c2ccc(NC(=O)c3ccc(-c4ccccc4)cc3)cc2)cc1`, the Potency is reported as inconclusive: 12.6 µM [inhibitor, single point].
In the case of `COCCCNC(=O)c1cccc(OC)c1OC`, the “activity change, negative = inhibition” value is reported as inactive: 0.0645% [at 46.1 µM].
`COc1ccc([N+](=O)[O-])c(S(=O)(=O)c2ccc(Cl)cc2)n1` was tested, and the Potency was inconclusive: 12.6 µM [activator, single point].
`Cc1cc(C)n(-c2nc(NCC(C)O)c3c4c(sc3n2)COC(C)(C)C4)n1` (stereo not given) was tested, and the “activity change, negative = inhibition” value was inactive: -5.89% [at 46.1 µM].
`CCCN(CCC)C(=O)CC(c1ccccc1)c1cc(Br)ccc1O` (stereo not given) was tested, and the Potency was inconclusive: 12.6 µM [inhibitor, single point].
For `O=C(NC1CCCCCC1)C(=S)N1CCOCC1`, the “activity change, negative = inhibition” value was inactive: 4.19%.
With `CC1(C(=O)O)CCC(C(=O)Nc2ccccc2O)C1(C)C` (stereo not given) the Potency was inconclusive: 5.01 µM [inhibitor, single point].
`O=C(Cn1c(=O)c(=O)n(Cc2ccccc2)c2ccc(Cl)cc21)Nc1cccc(F)c1` was tested, and the Potency was inconclusive: 12.6 µM [inhibitor, single point].
In the case of `COc1ccc(C2C(=O)c3ccccc3C2=O)cc1OC`, the Potency is reported as active: 12.6 µM.
For `O=C(NC12CC3CC(CC(C3)C1)C2)c1cc([N+](=O)[O-])ccc1N1CCOCC1`, the Potency was inconclusive: 10 µM [activator, partial curve].
In the case of `CCCN1C(=O)/C(=C\C=C2/C=CN(CC)c3ccccc32)SC1=S`, the Potency is reported as active: 2 µM.
In the case of `Cn1c(=O)c2c(nc(Oc3ccc(-c4ccccc4)cc3)n2C)n(C)c1=O`, the “activity change, negative = inhibition” value is reported as inactive: 5.11% [at 46.1 µM].
